Test results published in PubChem BioAssay AID488969 (Vanderbilt High Throughput Screening Facility, 2010).
In all, about 110,000 compounds were measured (“z-score”: median about -0.1, highest 2% from about 2 on). Some of the results follow. Calls of active or inactive are those of the source.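 The calls were made as follows: active = z-score in the third read window above 3 or below -3; inactive = the rest.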

Biological target: Metabotropic glutamate receptor 8 (Rattus norvegicus) (UniProt P70579)
Chain of UniProt P70579 (P70579 whole entry, looked up): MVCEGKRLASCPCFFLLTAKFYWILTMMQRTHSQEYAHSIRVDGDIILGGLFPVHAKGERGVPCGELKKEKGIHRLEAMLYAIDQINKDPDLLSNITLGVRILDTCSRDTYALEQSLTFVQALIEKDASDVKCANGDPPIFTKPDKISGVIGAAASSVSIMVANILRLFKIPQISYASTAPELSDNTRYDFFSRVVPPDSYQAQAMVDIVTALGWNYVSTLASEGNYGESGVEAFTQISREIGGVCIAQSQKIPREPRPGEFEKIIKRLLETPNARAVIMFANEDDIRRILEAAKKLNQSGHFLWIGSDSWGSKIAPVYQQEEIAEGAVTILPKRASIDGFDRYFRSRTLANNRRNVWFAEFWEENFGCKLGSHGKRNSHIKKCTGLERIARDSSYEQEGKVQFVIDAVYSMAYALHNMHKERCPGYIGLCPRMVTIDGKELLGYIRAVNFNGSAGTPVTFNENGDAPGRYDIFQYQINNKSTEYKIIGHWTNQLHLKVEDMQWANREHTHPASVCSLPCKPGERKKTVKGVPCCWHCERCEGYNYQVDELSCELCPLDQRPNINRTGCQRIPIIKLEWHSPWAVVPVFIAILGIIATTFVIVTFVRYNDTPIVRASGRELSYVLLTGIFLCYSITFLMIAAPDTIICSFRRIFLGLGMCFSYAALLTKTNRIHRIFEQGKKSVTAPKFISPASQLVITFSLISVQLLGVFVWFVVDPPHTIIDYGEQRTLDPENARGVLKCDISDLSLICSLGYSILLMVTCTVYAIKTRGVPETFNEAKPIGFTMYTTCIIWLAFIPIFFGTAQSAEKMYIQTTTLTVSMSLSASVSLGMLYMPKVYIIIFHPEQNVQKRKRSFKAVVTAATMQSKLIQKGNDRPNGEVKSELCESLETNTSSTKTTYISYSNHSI
Experiment: mGluR8 Gi/Go-coupled signaling modulation – cell-based, rat, thallium flux, HTS, primary screen (AID 488969)
Settings: HEK293 rat mGluR8, GIRK (G protein-gated inwardly rectifying potassium channel) thallium flux, FluoZin2; at 10 µM; stronger effect = higher value; submaximal glutamate (EC20) added with thallium

Structure (SMILES)	z-score
CC(=O)c1c(C)[nH]c(C(=O)NCc2ccc(C)cc2)c1C	-0.596
CC(C)CCN=Cc1c(O)n(-c2ccccc2)c(=O)c2ccccc12	-0.573
N#C/C(C(N)=O)=C1/CCc2ccccc2N1	-0.382
CCOC(=O)C1CCCN(C(=O)c2cc(Nc3ccc(OC)cc3OC)nc3ccccc23)C1 (centres undefined)	-0.718
CC(NC(=O)CCc1ccc(S(=O)(=O)NC2CCCCC2)cc1)c1ccccc1 (centres undefined)	-0.297
Cc1c(NC(=O)c2cnn3c2NC(c2ccc(Br)cc2)CC3C(F)(F)F)c(=O)n(-c2ccccc2)n1C (centres undefined)	-0.233
Cc1ccc(S(=O)(=O)NNC(=O)NC23CC4CC(CC(C4)C2)C3)cc1	0.125
O=C(Cn1cc2c(n1)CCCC2)NC1CCN(Cc2ccccc2)CC1	-0.592
COc1ccccc1-c1nnc(SCC(=O)c2ccc(C3CCCCC3)cc2)n1Cc1ccco1	-0.0485
CCC1CCc2sc(C(=O)O)cc2C1 (centres undefined)	0.188
C=CCn1c(=NC(=O)c2cc(-c3cccs3)nc3ccccc23)sc2cc(S(N)(=O)=O)ccc21	-0.218
Cn1c(SCC(=O)N2CCN(S(=O)(=O)c3ccccc3)CC2)nc2ccccc21	-0.0748
COCC(=O)N(C)C1(c2nnnn2CCOC(=O)Nc2ccc(Cl)cc2)CCCC1	-0.281
CC1(C)CC(=O)C2=C(C1)Nc1[nH]n(-c3ccccc3)c(=O)c1C2c1ccc2c(c1)OCO2 (centres undefined)	-2.23
Cc1cc(C)nc(SCc2nnc(SCC(=O)Nc3nccs3)n2C)n1	0.465
CCC(=O)NCCSc1c[nH]c2ccccc12	-0.228
CCN(CC)CCNC1=NCCn2c1cc1cc(OC)ccc12	0.812
COc1ccc(-n2c(C)cc(C(=O)CN3C(=O)NC4(CCc5ccccc54)C3=O)c2C)cc1 (centres undefined)	0.335
O=C(/C=C/c1ccc(Br)cc1)NCc1cccs1	0.0715
COc1cccc(C2/C(=C(/O)c3cnn(-c4ccccc4)c3C)C(=O)C(=O)N2CCN(C)C)c1OC (centres undefined)	0.211
O=C(C1=COCCO1)N1CCN(C(c2ccccc2)c2ccccc2)CC1	-0.51
COc1ccc(OC)c(S(=O)(=O)Nc2cc(OC)c(Cl)cc2OC)c1	0.536
Cc1onc(-c2ccccc2)c1C(=O)N1CCN(C)CC1	0.0323
Nc1ccc2c(c1)C(=O)C(=O)c1ccccc1-2	-0.694
CCOC(=O)c1cccnc1SCC(=O)NC(C)CC (centres undefined)	-0.307
CNc1nnc(-c2cc3cc(Cl)ccc3oc2=O)s1	0.261

Structure (SMILES)	z-score
CCOC(=O)/C(C#N)=C\c1ccc(OCC(=O)Nc2ccc(C)cc2C)c(OC)c1	0.292
CCN(CC)S(=O)(=O)c1cc(NC(=O)C(C)N(C)CC(=O)Nc2c(C)cccc2C)ccc1C (centres undefined)	-0.507
O=C(NCc1ccccc1Br)c1ccco1	0.426
CN(C)c1ccc(N=c2sc3ccccc3n2C)cc1	-0.0969
COc1cc(OC)c(/C=N/NC(=O)c2ccc([N+](=O)[O-])cc2)cc1Br	0.0834
CCOc1ccc(NC(=O)CCNS(=O)(=O)c2cccs2)cc1	-0.225
O=S(=O)(c1ccc(Cl)cc1)N1CCN=C1SCc1ccc(Cl)c(Cl)c1	0.114
CCCSc1nc(SCC(=O)NCc2ccccc2)c2c3c(sc2n1)COC(C)(C)C3	-0.825
CCCc1nc2ccccc2c(=O)n1/N=C/c1ccc(O)c(O)c1	1.52
Cc1ccc(S(=O)(=O)C2CS(=O)(=O)CC2O)cc1 (centres undefined)	-0.076
CCOC(=O)c1cnn(CCOC(=O)C(C)(C)C)c1NC(=O)C(C)(C)C	-0.215
CCC(=O)Nc1ccc(NC(=O)CSc2nnnn2C(C)C)cc1	-0.24
C=CCn1c(SC(C)C(=O)NC2(C#N)CCCCC2)nnc1-c1ccc(OC)cc1 (centres undefined)	0.188
O=C(Cn1c(COc2ccccc2)nc2ccccc21)Nc1cc(Cl)cc(Cl)c1	0.0164
COc1ccc(-c2cc(C(=O)NCCN3CCOCC3)c3ccccc3n2)c(OC)c1	0.0852
CCCC(=O)Nc1c2c(nn1-c1ccc(OC)cc1)CS(=O)C2 (centres undefined)	-1.01
CCCOc1cccc(C(=O)NC(=S)Nc2cccc(C(F)(F)F)c2)c1	active: 3.57
COc1ccccc1-c1nnc(SC(C(=O)c2c[nH]c3ccccc23)c2ccccc2)n1C (centres undefined)	-0.221
CCCCNC(=O)Nc1c(C(=O)OCC)[nH]c2ccccc12	0.168
CCOC(=O)N/N=C/c1cc(C)n(-c2cccc3ccccc23)c1C	0.402
O=C(NCCCN1CCOCC1)c1cnn2c(-c3ccccc3)cc(-c3ccccc3)nc12	-0.635
O=C(OCCCCN1C(=O)c2ccccc2C1=O)c1ccc(Br)o1	-0.527
CCOC(=O)c1c(NC(=O)C2c3ccccc3Oc3ccccc32)sc(C(=O)N(CC)CC)c1C	0.0462
O=c1c(/C=N/Nc2ccccc2)c(Sc2nnnn2-c2ccccc2)nc2ccccn12	-0.379
CC1CCN(C(=O)C2CCC(CNS(=O)(=O)c3cccc4cccnc34)CC2)CC1 (centres undefined)	-0.537
COc1ccc(N2C(=O)NC(NC(=O)c3ccncc3)(C(F)(F)F)C2=O)cc1 (centres undefined)	-0.195

Structure (SMILES)	z-score
COC(=O)C(CC(=O)c1ccc(Cl)cc1)c1ccc(C(C)C)cc1 (centres undefined)	-0.0764
Cc1c(NC(=O)CN2CCN(c3ccccc3)CC2)c(=O)n(-c2ccccc2)n1C	-0.0454
C/C(=N\O)C(=O)C(CN1CCCCC1)CN1CCCCC1	0.246
CCOC(=O)c1c(NC(=O)CSc2nc3cccnc3n2C)sc(C(C)=O)c1C	-0.206
S=C(NC1CCCC1)N1CCN(c2ccccn2)CC1	-0.0853
Cc1nn(-c2ccccc2)c(N2CCCC2)c1/C=N/Nc1ccc(S(=O)(=O)Nc2ccccc2)cc1[N+](=O)[O-]	-0.151
COc1ccc([N+](=O)[O-])cc1NC(=O)CSc1nncn1-c1ccccc1	-0.133
O=C(CN1C(=O)c2cccc3cccc1c23)NCC1CCCO1 (centres undefined)	0.744
CC1(C)CC(=O)C2=C(C1)NC(Nc1nc3ccccc3o1)=NC21CCCCC1	0.596
Cc1ccc(NC(=O)CSc2nc3ccccc3c3nc(CCc4c(C)n[nH]c4C)nn23)cc1F	-0.264
COc1ccc2[nH]c3c(c2c1)CCn1c-3nc2sc(C(=O)Nc3ccccc3)c(C)c2c1=O	-0.0758
N=C1C(c2nc(-c3ccc(F)cc3)cs2)=C(O)CN1CCCN1CCOCC1	0.288
O=C1CCC/C(=N/NC(=O)c2ccc(CN3c4cccc5cccc(c45)S3(=O)=O)cc2)C1	-0.115
CC(C)c1ccc(/C=C/C(=O)n2nnc3ccccc32)cc1	0.601
O=C(CCc1nc(-c2ccccc2F)no1)NC1CCN(Cc2ccccc2)CC1	0.608
N#C/C(=N\Nc1ccccc1)C(=N)N1CCOCC1	0.135
CCCCn1c(NCCN(C)C)nc2c1c(=O)[nH]c(=O)n2C	0.337
Cc1ccc(NC(=O)CCN2CCN(C/C=C/c3ccccc3)CC2)cc1C	0.543
Cc1nn(Cc2ccccc2)c(C)c1NC(=O)CCC(=O)O	-0.119
CN(C)CCNc1nc(-c2ccccc2)c2c(c1C#N)CC(C)(C)OC2	-0.264
Cc1ccc(C2=[N+]([O-])C3(CCCCC/C3=N\NC(N)=O)N(O)C2(C)C)o1 (centres undefined)	-0.0325
COC(=O)CCn1nnc(-c2ccc(C(C)C)cc2)n1	-0.177
Cc1ccc(-c2cnn(-c3cccc([N+](=O)[O-])c3)c2N)cc1	-0.173
CCOC(=O)C(CC)(CC)/C(C)=N/NC(=O)CC#N	0.316
N#Cc1c(/N=C/c2cccs2)sc2c1CCCCC2	-0.587
Cc1ccc(-c2csc(NC(=O)c3ccno3)n2)cc1	0.118

Structure (SMILES)	z-score
CC(C)(C)c1ccc(C2CC2C(=O)N/N=C\c2cc3ccccc3nc2Cl)cc1 (centres undefined)	-0.118
c1ccc(-c2nc(-c3ccco3)cs2)nc1	1.2
Cc1ccc(/C=c2\sc3nc(-c4cccs4)nn3c2=O)o1	-0.419
Cn1c(=O)c2ncn(CC(=O)Nc3ccc4c5c(cccc35)CC4)c2n(C)c1=O	1.66
Cc1cc(C)nc(SCc2nnc(SCC(=O)Nc3nc(-c4ccccc4)cs3)n2-c2ccccc2)n1	-0.227
Cc1ccc2nc(SC(C)C(=O)NCc3ccco3)[nH]c2c1 (centres undefined)	0.142
Cc1cc(C)c2c(-n3cccc3)c(C(=O)NNS(=O)(=O)c3ccccc3)sc2n1	-0.415
O=C(Cc1ccccc1)N/N=C/c1ccc(OC(=O)/C=C\c2ccco2)cc1	-0.0554
CC(C)(C)c1ccc(OCC(=O)NCCN2CCCC2)cc1	0.285
Cn1c(=O)c2sccc2n2c(CCCC(=O)NCc3ccc4c(c3)OCO4)nnc12	-0.304
Cc1cc(NC(=O)CCCC(=O)N(CC(=O)NC2CCCCC2)c2ccccc2)no1	-0.038
O=C(CSc1ccc(/C=N/NC(=O)c2cccc(F)c2)o1)Nc1ccccc1	-0.589
COc1ccc(CC(=O)NNc2ncnc3c2cnn3-c2ccccc2)cc1	-0.0867
COc1cc(/C=C2/C(=N)N3OC(C)=CC3=NC2=O)ccc1OCCOc1ccc(C)cc1	-0.224
Cc1ccc(S(=O)(=O)N2CCOCC2)cc1C(=O)NCc1cn2ccsc2n1	-0.137
Cc1ccccc1NC1=NC(C)(C)N=C(N)N1	-0.227
CCc1ccc(-c2csc(NC(=O)C3=NN(c4ccccc4)C(=O)CC3)n2)cc1	-0.2
COc1ccc(-n2nc([N+](=O)[O-])c(=NCCc3ccc(OC)c(OC)c3)n2O)cc1	-0.0116
CCCOC(=O)c1ccc(Oc2cn[nH]c2-c2ccc(OC)cc2O)cc1	-0.53
Cc1ccc(C(=O)O/N=C2\CCCc3ccccc32)cc1	-0.149
N/C(Cc1ccc([N+](=O)[O-])cc1)=N\OC(=O)COc1cccc2ccccc12	-0.185
CC(=O)Nc1ccc(NC(=O)COC(=O)c2c(C)nn(-c3ccccc3)c2C)cc1	-0.546
CC(C)(C)c1ccc(OCc2ccc(C(=O)N/N=C/c3ccc([N+](=O)[O-])cc3)o2)cc1	-0.4
COc1ccc(S(=O)(=O)Nc2cccc(N(C)S(C)(=O)=O)c2)cc1Br	-0.0878
O=C1CC(c2cccc(Br)c2)c2cc3c(cc2N1)CCC3 (centres undefined)	-0.00205
CCOc1ccc(NC(=O)Nc2ccc(N(C)C(C)=O)cc2)cc1	0.478
